Experimental findings from patent publication US20250188160A1 (ASKGENE PHARMA, published 2025) are described below.

For orientation: Kd means the constant that tells how readily two partners part at equilibrium. A high value points to a looser complex. In general, IC50 refers to the point on the concentration scale where inhibition reaches its midpoint. A higher IC50 goes with lower potency.

Numbering of substitutions follows the chain as printed.

Experiment [1] addresses T1, Human Ang1 protein (R&D System) (human, UniProt Q15389 20-498, limits assumed).
T1 construct: Bought protein
T1 sequence (looked up): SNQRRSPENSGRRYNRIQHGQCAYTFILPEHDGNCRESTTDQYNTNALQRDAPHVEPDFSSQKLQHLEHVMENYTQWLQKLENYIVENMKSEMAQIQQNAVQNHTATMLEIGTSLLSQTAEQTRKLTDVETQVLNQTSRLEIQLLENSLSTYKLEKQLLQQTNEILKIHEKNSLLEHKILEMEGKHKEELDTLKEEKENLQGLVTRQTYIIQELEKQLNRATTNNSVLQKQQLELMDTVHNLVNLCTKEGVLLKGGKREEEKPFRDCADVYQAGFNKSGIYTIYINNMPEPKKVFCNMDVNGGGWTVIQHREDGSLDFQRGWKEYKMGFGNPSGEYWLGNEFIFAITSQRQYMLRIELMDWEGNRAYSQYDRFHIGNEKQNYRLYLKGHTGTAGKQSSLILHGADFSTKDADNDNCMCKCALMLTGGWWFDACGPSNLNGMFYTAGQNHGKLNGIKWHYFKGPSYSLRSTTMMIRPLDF
As to the kind of experiment: Octet Red96 (BLI); chimeric molecule on anti-human IgG Fc sensors, ANG1 in solution; 1:1 model, global fit.

Experiment [2] addresses T2, Human Ang2 protein (R&D System) (human, UniProt O15123 19-496, limits assumed).
T2 construct: Bought protein; also called angiopoietin-2
T2 sequence (looked up): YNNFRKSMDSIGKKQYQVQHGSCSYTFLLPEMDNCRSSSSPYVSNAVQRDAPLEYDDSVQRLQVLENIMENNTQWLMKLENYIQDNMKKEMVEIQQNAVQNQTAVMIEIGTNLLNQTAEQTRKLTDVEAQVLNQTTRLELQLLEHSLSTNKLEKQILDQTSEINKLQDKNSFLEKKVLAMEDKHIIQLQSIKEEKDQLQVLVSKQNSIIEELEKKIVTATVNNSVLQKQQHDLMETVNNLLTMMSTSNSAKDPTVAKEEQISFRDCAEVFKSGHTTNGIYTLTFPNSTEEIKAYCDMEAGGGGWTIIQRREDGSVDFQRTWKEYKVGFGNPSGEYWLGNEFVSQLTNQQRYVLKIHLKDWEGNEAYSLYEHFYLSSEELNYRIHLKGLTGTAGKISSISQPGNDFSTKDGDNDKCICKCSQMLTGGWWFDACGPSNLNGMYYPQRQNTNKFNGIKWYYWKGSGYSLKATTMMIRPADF
As to the kind of experiment: Ang-2 blocking assay (inhibition of the binding of Ang-2 to Tie-2), FIG. 5.

B1: AMD-B (bispecific antibody, human IgG1, kappa)
heavy: AQQKYQPLDELDKTLYDQFMLQQGGGGGSGGGGSGGGGSEVQLVESGGGLVQPGGSLRLSCAASGYTFTNYGMNWVRQAPGKGLEWVGWINTYTGEPTYAADFKRRFTFSLDTSKSTAYLQMNSLRAEDTAVYYCAKYPHYYGSSHWYFDVWGQGTLVTVSS[letters of human IgG1 constant region omitted]
light: DIQMTQSPSSLSASVGDRVTITCSASQDISNYLNWYQQKPGKAPKVLIYFTSSLHSGVPSRFSGSGSGTDFTLTISSLQPEDFATYYCQQYSTVPWTFGQGTKVEIKRTVAAPSVFIFPPSDEQLKSGTASVVCLLNNFYPREAKVQWKVDNALQSGNSQESVTEQDSKDSTYSLSSTLTLSKADYEKHKVYACEVTHQGLSSPVTKSFNRGEC
notes: Peptide-antibody fusion
As for B1, in experiment [1], binding was characterised by a dissociation constant (Kd) of 1.73 nM.

B2: chimeric molecule 712-O2 (bispecific antibody, human IgG1, kappa)
heavy: EVQLVESGGGLVQPGGSLRLSCAASGYDFTHYGMNWVRQAPGKGLEWVGWINTYTGEPTYAADFKRRFTFSLDTSKSTAYLQMNSLRAEDTAVYYCAKYPYYYGTSHWYFDVWGQGTLVTVSSASTKGPSVFPLAPSSKSTSGGTAALGCLVKDYFPEPVTVSWNSGALTSGVHTFPAVLQSSGLYSLSSVVTVPSSSLGTQTYICNVNHKPSNTKVDKKV[letters of human IgG1 Fc with changes omitted]AGGGGSGGGGSGGGGSAQQKYQPLDELDKTLYDQFMLQQGLE
light: B1 light with M4L
notes: Peptide-antibody fusion; also called ASKB712-O2
As for B2, the IC50 in experiment [2] is about 0.078 nM.

B3: AMD-D (bispecific antibody, human IgG1, kappa)
heavy: AQQKYQPLDELDKTLYDQFMLQQGLEGGGGSGGGGSGGGGSEVQLVESGGGLVQPGGSLRLSCAASGYTFTNYGMNWVRQAPGKGLEWVGWINTYTGEPTYAADFKRRFTFSLDTSKSTAYLQMNSLRAEDTAVYYCAKYPHYYGSSHWYFDVWGQGTLVTVSS[letters of human IgG1 constant region omitted]
light: B1 light
notes: Peptide-antibody fusion; Two copies of L1-15 (with LE)
Take B3: binding in experiment [1] was characterised by a dissociation constant (Kd) of 1.37 nM.

B4: AMD-E (bispecific antibody)
heavy: EVQLVESGGGLVQPGGSLRLSCAASGYTFTNYGMNWVRQAPGKGLEWVGWINTYTGEPTYAADFKRRFTFSLDTSKSTAYLQMNSLRAEDTAVYYCAKYPHYYGSSHWYFDVWGQGTLVTVSS[letters of human IgG1 constant region omitted]GGGGGAQQEECEWDPWTCEHMGGGGSGGGGSGGGGSATHQEECEWDPWTCEHMLE
light: B1 light
In turn, B4 had a Kd in experiment [1] of 1.07 nM.

B5: chimeric molecule 712-O (bispecific antibody, human IgG1, kappa)
heavy: AQQKYQPLDELDKTLYDQFMLQQGLEGGGGSGGGGSGGGGSEVQLVESGGGLVQPGGSLRLSCAASGYDFTHYGMNWVRQAPGKGLEWVGWINTYTGEPTYAADFKRRFTFSLDTSKSTAYLQMNSLRAEDTAVYYCAKYPYYYGTSHWYFDVWGQGTLVTVSSASTKGPSVFPLAPSSKSTSGGTAALGCLVKDYFPEPVTVSWNSGALTSGVHTFPAVLQSSGLYSLSSVVTVPSSSLGTQTYICNVNHKPSNTKVDKKV[letters of human IgG1 Fc with changes omitted]
light: B1 light with M4L
notes: Peptide-antibody fusion; also called ASKB712-O
In the case of B5, the IC50 in experiment [2] is about 0.033 nM.
